Measured values as given in the RNAGym collection of RNA variant scans (doi:10.7554/elife.90254).
The source gives no read counts; variants with many changes may rest on few reads.

B1: LINE1-mini (parent)
chain: GGCAGAGCUCAACACAGCGUGGCAAAGUGGCUGUGGCUAGACUGCC

Variants of: B1
Assay: self-cleavage, relative activity (ratio to wild type); higher = more cleavage; in vitro, sequencing; the parent is a self-cleaving ribozyme

| Variant | self-cleavage |
| --- | --- |
| G1U G22U G44A | 0.07 |
| G1U G2C G40A | 0.01 |
| G1U C13U U38A C42G | 0.02 |
| G1U G2C A4C U9A G17C G19C | 0.25 |
| G1U G22C C37G | 0 |
| G1U G22A A25C G44C | 0.7 |
| G2A A4C A41U | 0.21 |
| G1U G5U U9C A14G | 0.01 |
| G1U U9A G17U | 0.01 |
| G1U G33C C37A U38A | 0 |
| G1U U9G C23A G33A G40C | 0.01 |
| G1U G5C C13G C31A | 0.05 |
| G1U G33A G36C | 0.02 |
| G1U G5U C31G C46A | 0.03 |
| G1U G5U A11C G22U | 0.05 |
| G1U G5C C10G G30U G36U | 0.01 |
| G1U G5U G21U G35U G36A C37U A41U | 0.2 |
| G1U G7U C31U | 0.03 |
| G1U G5U C18A | 0.06 |
| G1U G7A G44C | 0.06 |
| G1U G7C U9C A24G C37A | 0.06 |
| G1U G5A A11C | 0.02 |
| G1U G5C U9C C42U | 0.01 |
| G1U G5U A16G A24U | 0.03 |

| Variant | self-cleavage |
| --- | --- |
| G1U C23U U28A A41G | 0.09 |
| G1U G22U U34C | 0.12 |
| G2A A4C A25C G33U C45U | 0.01 |
| G1U G7U A16U G30U G44A | 0.05 |
| G1U G27U U28G G40U | 0.04 |
| G1U G40U C46A | 0.03 |
| G1U G29U G33A C46A | 0.04 |
| G1U U9C G21U C23G G36C G40A A41U | 0.01 |
| G1U G2C A11C G21U C46A | 0.03 |
| G1U G2C C10G A12G G17U G35U | 0.01 |
| G1U C37A C45U | 0.1 |
| G1U C31U G40U G44U | 0.01 |
| G1U G29C C31G | 0.12 |
| G1U G19A A26C C31A C45U | 0.06 |
| G1U G2C A11G | 0.01 |
| G1U G2A U9G G33A A41U | 0.21 |
| G1U C15A G19U G33A C37A C42G G44A | 0 |
| G1U U32A C46G | 0.06 |
| G1U G17U U28C G44A | 0.05 |
| G1U G2A U38C G44A | 0.22 |
| G1U C15U G36C | 0.02 |
| G1U G5U A6U C8A G33C | 0.15 |
| G1U C13U U34A C42G | 0.01 |
| G1U G2U U20A U28A G30C G33A | 0.01 |

| Variant | self-cleavage |
| --- | --- |
| G1U C18G U43A | 0.02 |
| G1U G5A A26G | 0.05 |
| G1U G5U U43A | 0.02 |
| G1U G5C A12G C45G | 0 |
| G1U G21U U38G | 0.03 |
| G1U G29U G36A | 0.27 |
| G1U G21C C37A G40C | 0.02 |
| G1U G7C U32G C45G | 0.04 |
| G1U G21C G33C G35U C45G | 0.02 |
| G1U G21U G40U | 0.06 |
| G1U U9A G29A | 0.02 |
| G1U G22A A24C | 0.25 |
| G1U U20C G33U | 0.07 |
| G1U G7A C10G G21C A24U U43C C45U | 0 |
| G1U G2A G30C U34G | 0.01 |
| G1U G2U G7U A16U G33A | 0.08 |
| G1U G29A C45A | 0.28 |
| G1U U9A U20A G30U G33U | 0 |
| G1U C31G G35A | 0.01 |
| G1U G2U C13U G27U U38C | 0.01 |
| G1U C18U G40C | 0.01 |
| G1U G7A G21A U28C | 0.03 |
| G1U G5C C15U U34C | 0.08 |
| G1U G7A G19U G29C | 0.11 |

| Variant | self-cleavage |
| --- | --- |
| G1U G7U C10A A16G C31U | 0 |
| G1U U9A G44A | 0.02 |
| G1U G2C C8A G19C C31U G36A | 0.02 |
| G1U C15U G21U | 0.66 |
| G1U C15A A25G C37G | 0.04 |
| G1U G7U U32A G40C C42A | 0.02 |
| G1U G7C C8G A11U C23U G35U C46A | 0.01 |
| G1U U9A C37U | 0.02 |
| G1U G21U C42G | 0.03 |
| G1U G21U C42U | 0.26 |
| G1U U9A G27C | 0.01 |
| G1U G2U G5U A14U G22U C42A | 0 |
| G1U G2C A12C U20C | 0.01 |
| G1U U38A A39C C46A | 0.33 |
| G1U G7A C8U U9G C23U C45U | 0.01 |
| G1U G5C C23G | 0.04 |
| G1U U9G G19A G21A U38A | 0.06 |
| G1U G17U U34A | 0.01 |
| G1U U38G C45U | 0.01 |
| G1U C15A G36A G40U | 0.08 |
| G1U G2U C8A C18G U43C G44C | 0.03 |
| G1U U9A A14C U20C | 0.03 |
| G1U G33U C42U C46U | 0.06 |
| G1U G7C A11G G29C | 0 |

| Variant | self-cleavage |
| --- | --- |
| G1U U20C A25C A39G | 0.05 |
| G1U U28A U34G G36C C37A C45U | 0 |
| G1U G2U U28G | 0.03 |
| G1U G5U G40U | 0.02 |
| G1U G40A C42U | 0.03 |
| G1U C13U G30A | 0.1 |
| G1U C15U A16U G29A C31U | 0.04 |
| G1U G5A G40U C45U | 0.05 |
| G1U C23A A25U G44A | 0.09 |
| G1U G7A U32A | 0.03 |
| G1U G27U G29U | 0.36 |
| G1U U9G G35A | 0.02 |
| G1U G2C C3A G22C | 0.21 |
| G1U G22U A26G | 0.23 |
| G1U U9G A14G C15G U32C U34C C45G | 0 |
| G1U G5U G29U | 0.11 |
| G1U G5A C15U C23A | 0.22 |
| G1U G2C G19A A24U G44A | 0.22 |
| G1U G17C C37A | 0.08 |
| G1U G17A U34C | 0.03 |
| G1U G35C C46U | 0.05 |
| G1U U28G U34A C45G | 0.06 |
| G1U U9C U34G | 0 |
| G1U G5C U38G | 0.11 |

| Variant | self-cleavage |
| --- | --- |
| G1U G7U C18U | 0.02 |
| G1U G2U G22A G30U G35C | 0.05 |
| G1U G2C A12G G40U | 0.04 |
| G1U C18U G22C G33A | 0.06 |
| G1U G19A C31U G33C | 0.02 |
| G1U G33U G40C A41C | 0.01 |
| G1U G5A A14C G21A | 0.16 |
| G1U C15U G22C G33U | 0.01 |
| G1U G7U A11C | 0 |
| G1U G2U A4C A16C G27U | 0.04 |
| G1U G35U G40A | 0.05 |
| G1U G21U C23A | 0.2 |
| G1U G30A G33C | 0.02 |
| G1U C15G G27C G29C C37A | 0.01 |
| G1U G27A A39G A41C C46G | 0 |
| G1U G21A A39G | 0.06 |
| G1U G7U A24C | 0.03 |
| G1U C18G A24U G27U U38C | 0.01 |
| G1U G27A U43C | 0.05 |
| G1U G21U G33C | 0.01 |
| G1U U34G G35A | 0.03 |
| G1U G36C G40C | 0.06 |
| G1U G2C U38C C42A | 0.04 |
| G1U C15A G19U U20C A41C | 0.01 |

| Variant | self-cleavage |
| --- | --- |
| G1U C23A A26G | 0.23 |
| G1U G35U A39G | 0.03 |
| G1U G19A U32G U34G G36C | 0.01 |
| G1U G27U U34G A41C | 0.01 |
| G2A A4C A11C A16U G29A | 0.01 |
| G1U C18G G33C | 0.05 |
| G1U G21C C23A U28A | 0.19 |
| G1U G2C A4G A14U G19U U43A | 0.06 |
| G1U G2C G22U A25U C31A | 0.01 |
| G1U C23A G36A | 0.07 |
| G1U G30C C31U G40A | 0.03 |
| G1U G5C C18U G21U | 0.01 |
| G1U C13U G44U | 0.08 |
| G1U G21A G35C | 0.02 |
| G1U G21C C23A U38A | 0.14 |
| G1U U20C G40A | 0.03 |
| G1U G5A C10U G21C G33U | 0.02 |
| G1U C13U G36U | 0.14 |
| G1U G5C U28G | 0.03 |
| G1U C15G C31A | 0.02 |
| G1U G2U A12G A24C | 0.03 |
| G1U G30A G44C | 0.27 |
| G1U G7C A11C G17A G33C U34C G36C G44U | 0 |
